Data reported in patent US20050256195A1, “Composition for preventing hypertension” (priority 2002, published 2005).

Columns and labels:
SHR rats = settings: 0.3% in feed, 8 weeks, 1 rat per sample
[1] = system: Patients with mild to moderate hypertension; assay: Test for confirming the effect of acetic acid on hypertensive patient (double blind, placebo, Example 10); assay type: in vivo, human; settings: about 0.75 g or 1.5 g of acetic acid per day for at least 4 weeks
[2] = system: spontaneous hypertensive rats (SHR/NCrj)
Description: These feeds were employed as samples.
As test animals, 6 spontaneous hypertensive rats (SPF, SHR/NCrj, male, 4-week-old, Charles River Japan) were prepared for each group to which each sample was to be administered (the group to which the test meal was to be administered and the control group). Rats were allowed to freely ingest feeds and tap water.
The day on which the test meal had been first administered was determined to be the day 1, and administration was continued for 8 weeks.
They were kept at a temperature of 20° C. to 26° C. and a humidity of 40% to 70% and placed in a well-lit place for 12 hours a day and in a dark place for 12 hours a day.
The blood pressure and the heart rate were noninvasively measured every week. The blood pressure was measured using an apparatus for noninvasive blood pressure measurement by the tail-cuff method. The heart rate was measured by employing the pulse of the blood pressure as a trigger. Measurements were carried out 5 times, and the mean thereof was determined.

[3] = pig, in vivo, po
gastric mucosa = settings: in vivo; cited from earlier work
[4] = feed with 3% of 5% acetic acid solution, t-test

CC(=O)O [acetic acid]
effect on elevation of blood pressure (SHR rats): has the effect of alleviating the elevation of blood pressure in SHR | acetic acid (molecules) in feeds needed to inhibit the elevation of blood pressure (SHR/Hos rats): ≥ 0.36 g per 1,000 g of feeds | content of 5% acetic acid solution in feeds needed to inhibit the elevation of blood pressure (SHR/Hos rats): ≥ 0.72% | period of continual ingestion needed for lower blood pressure than control (SHR/Hos rats): at least 3 weeks | body weights, comparison among groups (SHR/Hos rats; 0.36% to 9%, ANOVA): no significant difference among groups | feed consumption, comparison among groups (SHR/Hos rats; 0.36% to 9%, ANOVA): no significant difference among groups | blood pressure level versus control group (SHR/Hos rats; feeds comprising 0.36% acetic acid (5% solution)): not significantly different from that of the control group at any stage | blood pressure level versus control group (SHR/Hos rats; feeds comprising 0.72% acetic acid (5% solution), ANOVA p<0.05): became significantly lower than that of the control group on the 5th week | blood pressure level versus control group (SHR/Hos rats; feeds comprising 1.5% acetic acid (5% solution), ANOVA p<0.05): became significantly lower than that of the control group on the 4th week | blood pressure level versus control group (SHR/Hos rats; feeds comprising 3% to 9% acetic acid (5% solution), ANOVA p<0.05): became significantly lower than that of the control group on the 3rd week | blood pressure level of a patient with mild to moderate hypertension [1]: significantly lower the blood pressure level | body weight versus control group ([2]; feed with 3% of 5% (w/v) acetic acid solution, 8 weeks later, t-test): no significant difference | heart rate versus control group ([2]; feed with 3% of 5% acetic acid solution, 8 weeks): did not become significantly different from that of the control group at any stage | blood pressure level versus control group ([2]; feed with 3% of 5% acetic acid solution, 8 weeks, tail-cuff, p<0.05): significantly lower than that of the control group from the 4th week to the 8th week | feed consumption versus control group [2, 4]: no significant difference | water consumption versus control group [2, 4]: no significant difference | time after ingestion at which concentration returns to a level substantially the same as under fasting conditions [3]: 30 min | acetic acid concentration that exhibits the effect of protecting the gastric mucosa rather than damaging the stomach (gastric mucosa): up to 3%

Where two headings read alike, the source gives them in different places.
